From ChEMBL document CHEMBL3091431, “Aminopyridyl/Pyrazinyl Spiro[indoline-3,4'-piperidine]-2-ones As Highly Selective and Efficacious c-Met/ALK Inhibitors” (ACS Med Chem Lett, 2013)

Tests used:
[1] = system: Nc1ncnc2c1ncn2[C@@H]1O[C@H](COP(=O)(O)OP(=O)(O)OP(=O)(O)O)[C@@H](O)[C@H]1O; assay: Inhibition of human AXL (unknown origin) using EAIYAAPFAKKK peptide as substrate by nanoliter kinase assay
[2] = system: Nc1ncnc2c1ncn2[C@@H]1O[C@H](COP(=O)(O)OP(=O)(O)OP(=O)(O)O)[C@@H](O)[C@H]1O; assay: Inhibition of human c-Met using KKKSPGEYVNIEFG peptide as substrate by nanoliter kinase assay

| Substance | Km [1] [µM] | Km [2] [µM] |
| --- | --- | --- |
| Tyrosine-protein kinase receptor UFO (Homo sapiens) (sequence not shown) | 100 | – |
| Hepatocyte growth factor receptor (Homo sapiens) (sequence not shown) | – | 10 |
